# Laboratory results reported in PubChem BioAssay AID1508623 (National Center for Advancing Translational Sciences (NCATS), 2021).
# Hit rate of the full screen: of about 48,000 compounds, about 450 (0.94%) were called active. Not shown: some 19% with an inconclusive outcome. The call rests on the fitted dose curve; in most records, active means well fitted inhibition curve with a large enough effect; inconclusive means small, poorly fitted or top-dose-only effect; inactive means no such curve, though single readings can be large or run the other way. The list shows a part of the results.
# Assay: Primary qHTS for Identification of Small Molecule Inhibitors of Huntingtin Promoter Activity; further: nearly all actives have a fitted effect of over 50% in size
# Conditions: HEK293 HTT promoter firefly luciferase reporter (activity 0% = vehicle and -100% = no light), 24 h; series mostly up to 57.5 µM; activity change, negative = inhibition: at the top concentration
# Method in brief: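 Quantitative HTS used concentration series of up to 57.5 uM final on HEK293 luciferase reporter cells, 24 h at 37 degrees C. Readout was Dual-Glo firefly luminescence.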
# Potency means the concentration at half of the fitted maximal effect.
SMILES,"activity change, negative = inhibition",Potency
CCOc1ccc2nc(NC(=O)c3nc(SCc4ccccc4C)ncc3Cl)sc2c1,inactive: -1.56%,
O=C(CSc1nc2nccnc2c(=O)n1CCc1c[nH]c2ccccc12)Nc1ccccc1,inactive: -20.2%,
O=C(NC1CC(=O)N(c2ccccc2)C1)C(c1ccccc1)c1ccccc1 (stereo not drawn),inactive: -26.1%,
COC(=O)c1c(NC(=O)/C(C#N)=C/c2ccc(OC)cc2)sc2c1CCC2,inactive: 3.59%,
O=C1CN(/N=C/c2ccc([N+](=O)[O-])o2)C(=O)N1,inactive: -9.34%,
Cc1c(CCNC(=O)c2ccc(Br)o2)sc2nc(-c3ccc(Cl)cc3)nn12,inactive: -8.27%,
COc1ccc(S(=O)(=O)N2CCC(N3CCN(Cc4ccc(F)cc4)C(=O)C3=O)CC2)cc1,inactive: -13.8%,
CCc1ccc(C(=O)c2cn(CC(=O)Nc3cc(OC)ccc3OC)c3nc(C)ccc3c2=O)cc1,inactive: -20.8%,
Cc1oc2cc3oc(=O)c(CC(=O)NCc4ccccc4)c(C)c3cc2c1C,inactive: -8.56%,
CC1=C(CC(=O)O)c2cc(F)ccc2/C1=C\c1ccc(S(C)(=O)=O)cc1,inactive: -0.702%,
Cc1ccc(-n2c(=O)c3sc4ccccc4c3n(C)c2=O)cc1F,inactive: -3.56%,
Cc1ccc(C)c(NC(=O)c2ccc3c(c2)CCCN3S(C)(=O)=O)c1,inactive: 33.6%,
COc1cccc(NC(=O)c2oc3ccccc3c2NC(=O)c2ccc(F)c(F)c2)c1,inactive: 1.23%,
Cc1ccc(Cl)cc1NC(=O)C1CCCN(S(=O)(=O)c2cccc3cccnc23)C1 (stereo not drawn),inactive: -32.5%,
CCC(=O)N1CCc2cc(Br)cc(S(=O)(=O)N3CCCC(C(=O)Nc4cccc(C)c4C)C3)c21 (stereo not drawn),inactive: -16.2%,
Cc1ccccc1NC(=O)c1c(NC(=O)c2ccco2)sc2c1CCC(C(C)(C)C)C2 (stereo not drawn),inactive: -14.5%,
COc1ccccc1CNC(=O)CSc1nc2nc(C)c(Cc3ccccc3Cl)c(C)n2n1,inactive: -23.1%,
CC(=O)[C@@]1(O)CC[C@H]2[C@@H]3C[C@H](C)C4=CC(=O)CC[C@]4(C)[C@H]3CC[C@@]21C,inactive: -11.8%,
CC(CNC(=O)CN1C(=O)COc2ccc(S(=O)(=O)N3CCCCCC3)cc21)c1ccccc1 (stereo not drawn),inactive: -24.3%,
CCCCNC(=O)c1nn(-c2ccc(C)cc2)c(=O)n(C)c1=O,inactive: 0.136%,
CCOC(=O)c1c(S(=O)(=O)N2CCCC(C(=O)Nc3cccc(C#N)c3)C2)c(C)n(C)c1C (stereo not drawn),inactive: -19.6%,
Cc1ccccc1CNC(=O)c1cccc(NC(=O)N2CCSc3ncccc32)c1,inactive: -35.5%,
CC(Oc1ccccc1)C(=O)Nc1ccc(OCc2cc(=O)n3ccsc3n2)cc1 (stereo not drawn),inactive: 16.9%,
NS(=O)(=O)c1ccc(CCNC(=O)c2ccc3nc(CCc4ccccc4)oc3c2)cc1,inactive: 0.106%,

SMILES,"activity change, negative = inhibition",Potency
Cc1cc2c(cc1S(=O)(=O)N(C)CC(=O)Nc1ccc(C#N)cc1)OCC(=O)N2,inactive: -18.9%,
CCOC(=O)c1c(S(=O)(=O)NCC(=O)Nc2ccc(C)c(N(C)C)c2)c(C)n(C)c1C,inactive: 7.38%,
Cn1c(=O)c2c(SCC(=O)NCc3ccco3)nc(-c3cccc(F)c3)nc2n(C)c1=O,inactive: -10.3%,
Cc1ccc(S(=O)(=O)c2cn(CC(=O)Nc3ccccc3C)c3cc4c(cc3c2=O)OCO4)cc1,inactive: -11.4%,
CCOc1ccc(CC(=O)Nc2c(C(=O)Nc3ccc(OC)cc3OC)oc3ccccc23)cc1,inactive: -11.1%,
C[C@H](N)[C@H](O)c1cccc(O)c1,inactive: 8.77%,
COc1ccc(-c2nc3cc(C)ccn3c2NC(=O)c2ccc(F)cc2)cc1,inactive: 24.1%,
Cc1nc(NC(=O)N2CCC[C@@H]2C(N)=O)sc1-c1csc(C(C)(C)C)n1,inactive: -4.65%,
Cc1cccc(N2CCN(C(=O)CN3C(=O)COc4ccc(S(=O)(=O)N5CCC(C)CC5)cc43)CC2C)c1 (stereo not drawn),inactive: -12.3%,
CCOc1ccc(CNC(=O)c2cnc3sc(N4CCOCC4)nn3c2=O)cc1OC,inactive: -7.59%,
COc1ccccc1NC(=O)CSc1nc2nccnc2c(=O)n1CCc1c[nH]c2ccccc12,inactive: -16.8%,
Cc1cccn2c(Nc3ccccc3)c(-c3cccs3)nc12,inactive: -17%,
CCN(CC)CCNC(=O)CSc1nc2nc(C)c(Cc3ccccc3)c(C)n2n1,inactive: -6.56%,
CN=C(NC#N)Nc1ccc(C2=NNC(=O)CC2C)cc1 (stereo not drawn),inactive: 6.25%,
CCOc1ccccc1NC(=O)CCn1cnnn1,inactive: -8.17%,
Cc1ccccc1CNc1nc(N(C)C)nc2c1cnn2C,inactive: -24.5%,
Cc1ccc(NC(=O)C2CCN(S(=O)(=O)c3ccc4[nH]c(=O)ccc4c3)CC2)cc1C,inactive: -9.45%,
Cn1c(=NC(=O)c2ccc(S(=O)(=O)N3CCCC3)cc2)sc2cc(F)ccc21,inactive: -1.61%,
CCc1ccccc1NCc1nnc2n1CCCCC2,inactive: -8.06%,
O=C1COc2cc(S(=O)(=O)CCC(=O)N3CCN(c4ccccc4F)CC3)c(Cl)cc2N1,inactive: -22.8%,
Cc1ccc(-c2nnc(SCC(=O)c3ccc(Cl)cc3)n2-c2ccccc2)cc1,inactive: -13.1%,
Cc1cccc(N2CCN(S(=O)(=O)c3ccc4c(c3)C(C(C)C)C(=O)N4)CC2)c1C (stereo not drawn),,active: 12.6 µM
CCOc1ccccc1NC(=O)C1CCN(S(=O)(=O)c2cc(Br)cc3c2N(C(C)=O)CC3)CC1,inactive: 11.2%,
COc1cccc(CN2CCCN(CC(=O)Nc3ccc4c(c3)OCCO4)S2(=O)=O)c1,inactive: -1.91%,
